From a collection of fitness landscapes (doi:10.1126/science.1257360)
This is one part of the list.

B1: PhoQ; a variant is named by its letters at X, in order, P23837 (parent)
chain: MKKLLRLFFPLSLRVRFLLATAAVVLVLSLAYGMVALIGYSVSFDKTTFRLLRGESNLFYTLAKWENNKLHVELPENIDKQSPTMTLIYDENGQLLWAQRDVPWLMKMIQPDWLKSNGFHEIEADVNDTSLLLSGDHSIQQQLQEVREDDDDAEMTHSVAVNVYPATSRMPKLTIVVVDTIPVELKSSYMVWSWFIYVLSANLLLVIPLLWVAAWWSLRPIEALAKEVRELEEHNRELLNPATTRELTSLVRNLNRLLKSERERYDKYRTTLTDLTHSLKTPLXXLQXXLRSLRSEKMSVSDAEPVMLEQISRISQQIGYYLHRASMRGGTLLSRELHPVAPLLDNLTSALNKVYQRKGVNISLDISPEISFVGEQNDFVEVMGNVLDNACKYCLEFVEISARQTDEHLYIVVEDDGPGIPLSKREVIFDRGQRVDTLRPGQGVGLAVAREITEQYEGKIVAGESMLGGARMEVIFGRQHSAPKDE

Variants of: B1
Assay: enrichment ratio after two sorts for PhoP signalling (ratio (wild type AVST 3.29)); higher = more functional
Conditions: with PhoP (E. coli)

WRMM and PEVD cannot be ordered by enrichment ratio: ≤ 0.25 for the first, ≤ 0.25 for the second.

TGSW and FFNS cannot be ordered by enrichment ratio: ≤ 0.25 for the first, ≤ 0.25 for the second.

IHIV and DIEA cannot be ordered by enrichment ratio: ≤ 0.25 for the first, ≤ 0.25 for the second.

KVDV and KGYE cannot be ordered by enrichment ratio: ≤ 0.25 for the first, ≤ 0.25 for the second.

AFPW and KMML cannot be ordered by enrichment ratio: ≤ 0.25 for the first, ≤ 0.25 for the second.

TLYG and TDDQ cannot be ordered by enrichment ratio: ≤ 0.25 for the first, ≤ 0.25 for the second.

NVTH and SIWM cannot be ordered by enrichment ratio: ≤ 0.25 for the first, ≤ 0.25 for the second.

VEEP and KVMS cannot be ordered by enrichment ratio: ≤ 0.25 for the first, ≤ 0.25 for the second.

KNLM and FVFV cannot be ordered by enrichment ratio: ≤ 0.25 for the first, ≤ 0.25 for the second.

First: AIGF
Second: VFMW
The enrichment ratio of the first is higher: 11.6 for the first, ≤ 0.25 for the second.

RVAF and EHQP cannot be ordered by enrichment ratio: ≤ 0.25 for the first, ≤ 0.25 for the second.

WNSC and HFKE cannot be ordered by enrichment ratio: ≤ 0.25 for the first, ≤ 0.25 for the second.

FWTF and FNVP cannot be ordered by enrichment ratio: ≤ 0.25 for the first, ≤ 0.25 for the second.

PFPC and DNRL cannot be ordered by enrichment ratio: ≤ 0.25 for the first, ≤ 0.25 for the second.

MARH and KCNY cannot be ordered by enrichment ratio: ≤ 0.25 for the first, ≤ 0.25 for the second.

ICIV and ESMY cannot be ordered by enrichment ratio: ≤ 0.25 for the first, ≤ 0.25 for the second.

LFQP and QCSP cannot be ordered by enrichment ratio: ≤ 0.25 for the first, ≤ 0.25 for the second.

PDKA and IWSA cannot be ordered by enrichment ratio: ≤ 0.25 for the first, ≤ 0.25 for the second.

NMEH and HMFM cannot be ordered by enrichment ratio: ≤ 0.25 for the first, ≤ 0.25 for the second.

RDFS and TEDY cannot be ordered by enrichment ratio: ≤ 0.25 for the first, ≤ 0.25 for the second.

LWNK and RAMR cannot be ordered by enrichment ratio: ≤ 0.25 for the first, ≤ 0.25 for the second.

KTRF and RPIW cannot be ordered by enrichment ratio: ≤ 0.25 for the first, ≤ 0.25 for the second.

VSKN and ECWG cannot be ordered by enrichment ratio: ≤ 0.25 for the first, ≤ 0.25 for the second.

QSIA and DCFP cannot be ordered by enrichment ratio: ≤ 0.25 for the first, ≤ 0.25 for the second.

KAEL and IEQC cannot be ordered by enrichment ratio: ≤ 0.25 for the first, ≤ 0.25 for the second.

EKIR and KEIQ cannot be ordered by enrichment ratio: ≤ 0.25 for the first, ≤ 0.25 for the second.

PQGT and NFWA cannot be ordered by enrichment ratio: ≤ 0.25 for the first, ≤ 0.25 for the second.

Going from YARS to TGMV, the enrichment ratio rises from ≤ 0.25 to 12.7.

PLME and AERY cannot be ordered by enrichment ratio: ≤ 0.25 for the first, ≤ 0.25 for the second.

FNHE and PDGL cannot be ordered by enrichment ratio: ≤ 0.25 for the first, ≤ 0.25 for the second.

VLIM and FDME cannot be ordered by enrichment ratio: ≤ 0.25 for the first, ≤ 0.25 for the second.

NASA and LHLH cannot be ordered by enrichment ratio: ≤ 0.25 for the first, ≤ 0.25 for the second.

RSWN and KQPM cannot be ordered by enrichment ratio: ≤ 0.25 for the first, ≤ 0.25 for the second.

DDDT and IEFH cannot be ordered by enrichment ratio: ≤ 0.25 for the first, ≤ 0.25 for the second.

First: FLMS
Second: TSTL
The enrichment ratio of the first is lower: ≤ 0.25 for the first, 20.7 for the second.

Going from VEVH to PCCK, the enrichment ratio falls from 1.54 to ≤ 0.25.

KFQL and NGWS cannot be ordered by enrichment ratio: ≤ 0.25 for the first, ≤ 0.25 for the second.

MREM and WWLT cannot be ordered by enrichment ratio: ≤ 0.25 for the first, ≤ 0.25 for the second.

IMST and DSYK cannot be ordered by enrichment ratio: ≤ 0.25 for the first, ≤ 0.25 for the second.

Going from GTIT to GICY, the enrichment ratio rises from ≤ 0.25 to 1.24.

EVWI and SKPD cannot be ordered by enrichment ratio: ≤ 0.25 for the first, ≤ 0.25 for the second.

TAFM and VKSY cannot be ordered by enrichment ratio: ≤ 0.25 for the first, ≤ 0.25 for the second.

PWDW and TNPT cannot be ordered by enrichment ratio: ≤ 0.25 for the first, ≤ 0.25 for the second.

First: MGLE
Second: YAQE
The enrichment ratio of the first is higher: 9.21 for the first, ≤ 0.25 for the second.

VMRS and KTYS cannot be ordered by enrichment ratio: ≤ 0.25 for the first, ≤ 0.25 for the second.

LSNA and PHAV cannot be ordered by enrichment ratio: ≤ 0.25 for the first, ≤ 0.25 for the second.

Going from FYEG to VEFT, the enrichment ratio rises from ≤ 0.25 to 0.92.

Compared with IALM, PEGA is lower in enrichment ratio: 6.67 for the first, ≤ 0.25 for the second.

MQPM and VNWA cannot be ordered by enrichment ratio: ≤ 0.25 for the first, ≤ 0.25 for the second.

LWIM and TQGK cannot be ordered by enrichment ratio: ≤ 0.25 for the first, ≤ 0.25 for the second.

FRCL and WICC cannot be ordered by enrichment ratio: ≤ 0.25 for the first, ≤ 0.25 for the second.

KVQW and VSKM cannot be ordered by enrichment ratio: ≤ 0.25 for the first, ≤ 0.25 for the second.

FRFP and PQHL cannot be ordered by enrichment ratio: ≤ 0.25 for the first, ≤ 0.25 for the second.

IWCE and GHLT cannot be ordered by enrichment ratio: ≤ 0.25 for the first, ≤ 0.25 for the second.

FISI and IKEG cannot be ordered by enrichment ratio: ≤ 0.25 for the first, ≤ 0.25 for the second.

ACRS and SHYR cannot be ordered by enrichment ratio: ≤ 0.25 for the first, ≤ 0.25 for the second.

AQHP and TYKV cannot be ordered by enrichment ratio: ≤ 0.25 for the first, ≤ 0.25 for the second.

IMIG and FSTE cannot be ordered by enrichment ratio: ≤ 0.25 for the first, ≤ 0.25 for the second.

PVFV and IQLQ cannot be ordered by enrichment ratio: ≤ 0.25 for the first, ≤ 0.25 for the second.

First: WDPS
Second: GTLY
The enrichment ratio of the first is lower: ≤ 0.25 for the first, 6.3 for the second.

ASRK and LSPP cannot be ordered by enrichment ratio: ≤ 0.25 for the first, ≤ 0.25 for the second.

YSTF and EYST cannot be ordered by enrichment ratio: ≤ 0.25 for the first, ≤ 0.25 for the second.

ENKR and LIGL cannot be ordered by enrichment ratio: ≤ 0.25 for the first, ≤ 0.25 for the second.

MAMT and MICY cannot be ordered by enrichment ratio: ≤ 0.25 for the first, ≤ 0.25 for the second.

LTCV and ELWE cannot be ordered by enrichment ratio: ≤ 0.25 for the first, ≤ 0.25 for the second.

Going from KSCP to TREK, the enrichment ratio falls from 1.04 to ≤ 0.25.

Compared with NVAR, TKSV is higher in enrichment ratio: ≤ 0.25 for the first, 4.01 for the second.

WDRW and HTSA cannot be ordered by enrichment ratio: ≤ 0.25 for the first, ≤ 0.25 for the second.

SPRF and AFNE cannot be ordered by enrichment ratio: ≤ 0.25 for the first, ≤ 0.25 for the second.

IIFP and SRAR cannot be ordered by enrichment ratio: ≤ 0.25 for the first, ≤ 0.25 for the second.

PRNP and GMHH cannot be ordered by enrichment ratio: ≤ 0.25 for the first, ≤ 0.25 for the second.

GETN and FIGP cannot be ordered by enrichment ratio: ≤ 0.25 for the first, ≤ 0.25 for the second.

ELDF and ECDI cannot be ordered by enrichment ratio: ≤ 0.25 for the first, ≤ 0.25 for the second.

VCQS and LDAQ cannot be ordered by enrichment ratio: ≤ 0.25 for the first, ≤ 0.25 for the second.

First: YYKH
Second: FCLV
The enrichment ratio of the first is lower: ≤ 0.25 for the first, 7.03 for the second.

MFYG and ESDI cannot be ordered by enrichment ratio: ≤ 0.25 for the first, ≤ 0.25 for the second.

For DCMG, the enrichment ratio was ≤ 0.25.
